# Measured values as given in the supplement of paper PMC3334620.
# Whole data set: some 33,000 sequences, median “E-score (-0.5 to 0.5)” near -0.041, cut for the highest 2% near 0.37. This is one part of the list.
# Target: T1, Ecm22 (UniProt Q05958)
# T1 sequence: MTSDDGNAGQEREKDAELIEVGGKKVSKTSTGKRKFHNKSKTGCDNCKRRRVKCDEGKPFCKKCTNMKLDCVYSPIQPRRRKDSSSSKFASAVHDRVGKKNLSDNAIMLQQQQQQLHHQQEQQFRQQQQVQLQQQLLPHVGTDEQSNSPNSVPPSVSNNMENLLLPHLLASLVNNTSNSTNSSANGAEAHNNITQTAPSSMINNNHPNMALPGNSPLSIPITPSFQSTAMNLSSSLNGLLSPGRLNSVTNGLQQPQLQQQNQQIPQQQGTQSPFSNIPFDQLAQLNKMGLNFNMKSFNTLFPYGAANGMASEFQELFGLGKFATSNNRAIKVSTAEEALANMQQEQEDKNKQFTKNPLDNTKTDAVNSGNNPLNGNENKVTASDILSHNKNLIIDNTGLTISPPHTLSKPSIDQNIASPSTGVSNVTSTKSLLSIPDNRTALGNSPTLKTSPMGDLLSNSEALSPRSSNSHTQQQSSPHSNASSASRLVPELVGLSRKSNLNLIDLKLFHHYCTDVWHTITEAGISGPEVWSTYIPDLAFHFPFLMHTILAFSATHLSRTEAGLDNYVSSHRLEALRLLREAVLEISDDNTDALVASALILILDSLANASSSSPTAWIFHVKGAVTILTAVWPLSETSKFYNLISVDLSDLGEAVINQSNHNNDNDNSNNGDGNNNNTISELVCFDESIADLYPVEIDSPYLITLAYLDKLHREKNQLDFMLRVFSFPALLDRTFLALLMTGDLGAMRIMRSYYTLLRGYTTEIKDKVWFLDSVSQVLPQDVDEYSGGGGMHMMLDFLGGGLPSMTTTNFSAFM
# Assay: PBM E-score (8-mer binding enrichment) (E-score (-0.5 to 0.5)); higher = stronger / more preferred TF binding; most listed sequences are background and not binding sites
# Settings: protein concentration: 200 nM; construct: GST-full length
# Description: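 Universal 'all 10-mer' protein binding microarrays (Agilent AMADID 015681) probed with GST-tagged S. cerevisiae TFs (full-length or DBD) made by in vitro transcription/translation (PURExpress), about 100-200 nM. Bound TF was detected with fluorescent anti-GST. Each ungapped 8-mer (which stands for itself and its reverse complement) is scored by the PBM enrichment score (E-score), a modified Wilcoxon-Mann-Whitney statistic from -0.5 to +0.5, computed with the Universal PBM Analysis Suite. Scale: above 0.35 generally sequence-specific binding.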
row,Sequence,PBM E-score
1,CATGTCGG,-0.0338
2,CAGCGTAG,-0.0328
3,AGCGTCTC,-0.221
4,AAGGACCG,-0.00277
5,CATCGAGC,-0.0692
6,CAGTCGTC,-0.109
7,GAATGGCC,-0.127
8,CTCCGGTC,0.174
9,CCTCCTGA,-0.0935
10,CACGAACA,0.177
11,ATGTTTGA,-0.0211
12,TCCTGGCA,-0.072
13,CATGTATA,0.0485
14,CGCCGGGA,0.0127
15,GCGCTCCC,-0.132
16,ATGCTGTG,0.039
17,ATAACGTA,0.267
18,TAAGAGCA,0.131
19,GCGAATCA,0.167
20,ATGAGTGG,-0.127
21,CCAAGGCC,-0.174
22,GCTTAGAC,-0.291
23,CAATAAAG,0.0785
24,ACGCGCAT,0.0479
25,CCCCTGGA,-0.247

row,Sequence,PBM E-score
1,AAATGATT,0.0314
2,AGATATCC,0.107
3,ATGTCAGA,-0.229
4,TCCGTGAA,0.043
5,CTACTGGA,-0.265
6,AGCGAACA,0.198
7,ACGATCGC,0.327
8,AGGGACAA,-0.166
9,ACCCCCTA,-0.244
10,CACTTGAG,-0.0674
11,GTAAAGGA,0.081
12,GACCAGAA,-0.0946
13,ACCAACCG,0.0945
14,GCGAGGCC,0.251
15,ACGAATAA,0.305
16,GCCGGGCC,-0.0972
17,GGGCCTTA,-0.262
18,GTTTCGAA,-0.00209
19,AGGTCTCG,0.105
20,TCCTTGCA,-0.0745
21,AGCCCCCA,-0.377
22,GTACGAAC,0.475
23,GCAGAACA,-0.161
24,GCAGGCGC,-0.113
25,ATTCGAAC,0.184

row,Sequence,PBM E-score
1,GCGCACGC,-0.0289
2,ACTTACGC,-0.137
3,CGCCCCCG,-0.129
4,TGGATGAA,0.025
5,GTCGGGGA,-0.113
6,GACTCTGA,-0.24
7,AAGGCCCC,-0.122
8,ACGAACAA,0.38
9,AATTAGGG,-0.208
10,ACTGTGTC,-0.135
11,GAAGAATA,-0.00026
12,GCCACACA,-0.285
13,CACGCACA,0.152
14,AGTGTAAC,-0.0676
15,CGGGGACG,-0.21
16,ACAATCAC,0.0311
17,AGGGAGCC,-0.306
18,CTGGCTAA,-0.21
19,CAATGGTA,0.0577
20,ACGAGGCG,0.431
21,GACAATTA,0.0512
22,CGGAGTAG,-0.0355
23,CCGAGGAG,0.219
24,AGATAGCT,-0.0945
25,AGTGTTTC,0.0244

row,Sequence,PBM E-score
1,TGCTCACA,-0.0876
2,AGTTGAAC,0.0747
3,AAGAATAC,0.102
4,ATACTCGG,0.146
5,AGCAAACC,0.00737
6,ACGGTCCC,0.066
7,CGGTCACG,0.086
8,GCCGGCTA,-0.308
9,ATCTAGTC,0.0312
10,AAACTTAC,0.027
11,AAAACTGT,-0.0446
12,CGTTATGA,-0.0262
13,CGTCCTCC,-0.039
14,AGCTAAAC,0.195
15,CTGACGAA,0.0373
16,AGAGTCGA,-0.0661
17,CCCCACCA,0.0399
18,ATGGGATC,-0.12
19,GCACTGCA,-0.0415
20,GACGCTAA,-0.0642
21,AGTTGATA,0.0261
22,AGTCACTC,-0.00586
23,CTGAACAG,-0.166
24,GACTCACA,-0.3
25,ACGCGAAA,0.224

row,Sequence,PBM E-score
1,CTCGATCA,0.0997
2,GTCTTATA,-0.00247
3,ACAGGGCA,-0.0982
4,CACCTGTC,-0.0885
5,AGCACTCC,-0.13
6,GGTATTCA,0.0401
7,CAGATAAG,0.0291
8,CTGGAACA,-0.167
9,GTCCCGCA,-0.192
10,GCGCTGCA,-0.0611
11,CCCGCTGC,-0.205
12,CGCGCTGC,-0.171
13,CGCGTGTC,0.169
14,TATGGGCA,-0.0891
15,TGTTTAAA,-0.172
16,GCGGCCCC,-0.146
17,AGGTCAGG,-0.313
18,ATCTGGAC,-0.199
19,GGATTTCA,-0.0584
20,ATTTTAGC,-0.0648
21,ATTAGGTG,-0.085
22,ACAGCTAA,-0.195
23,GAAAAGCC,-0.164
24,ATCATACA,0.0909
25,ATCATTAG,0.0862

row,Sequence,PBM E-score
1,GAACAAGC,0.102
2,ACCTGGTA,-0.029
3,CTTGGTCA,-0.13
4,GCACGCTA,-0.0608
5,CGCTCATC,0.184
6,GCGGAAGA,-0.0573
7,CAGATCGC,0.0978
8,AGCGGGAG,-0.188
9,GGGTCACC,-0.332
10,ATATCCCC,-0.266
11,AGGGCTAC,-0.117
12,ATGGGTCC,-0.173
13,AGCAGCTC,-0.111
14,CCAGACCG,0.22
15,CATCCACC,-0.104
16,GTAAGAAA,0.135
17,GTGAGTCA,-0.194
18,ATTAGTGA,0.0244
19,CATAACCA,-0.0223
20,AGCCTCGC,0.153
21,AGCATTGG,-0.171
22,AACGAGTC,0.419
23,AGCCCGGC,-0.0285
24,CCCACAGC,0.00531
25,AAAGTACT,0.0287

row,Sequence,PBM E-score
1,ATAATTAG,-0.0911
2,AAAGCGTC,-0.0658
3,TCCCATCA,-0.271
4,ACCATGTG,-0.0748
5,GTACAAAC,0.145
6,GCGTGGAA,0.0374
7,GGCATGTA,0.26
8,TATGGTAA,0.0507
9,AACCCAGG,-0.198
10,AGTCGGTA,0.0735
11,ATTGCGAA,-0.0413
12,ATCATGCC,-0.237
13,TGGAAGAA,-0.0155
14,ACTCTACC,0.0196
15,GGTGGTAA,-0.157
16,CAAAAGTG,-0.259
17,CGCTGTCC,0.189
18,GAGACTCC,-0.135
19,AGGAGAGA,-0.254
20,GTCAAGTA,-0.123
21,GTCCACTA,-0.238
22,AGTAAAAG,0.0736
